# Over roughly 81,000 sequences, “one-hybrid fitness for binding parS DNA” has its median near -0.17; the highest 2% begin near 0.51. The list shows a part of the results.
# B1: Caulobacter ParB omega fusion; a variant is named by its letters at X, in order, B8GW30 (parent)
# chain: MESVVVGEPGMSEGRRGLGRGLSALLGEVDAAPAQAPGEQLGGSREAPIEILQRNPDQPRRTFREEDLEDLSNSIREKGVLQPILVRPSPDTAGEYQIVAGERAWRAAQRAGLKTVPIMVRELDDLAVLEIGIIENVQRADLNVLEEALSYKVLMEKFERTQENIAQTIGKSXSHVANXMRLLXLPDEVQSYLVSGELTAXHARAIAAAADPVALAKQIIEGGLSVRETEALARKAPNLSAGKSKGGRPPRVKDTDTQALESDLSSVLGLDVSIDHRGSTGTLTITYATLEQLDDLCNRLTRGI
# Variants of: B1
# Test: one-hybrid fitness for binding parS DNA (scaled: cognate 1, non-cognate 0); higher = stronger binding
# Conditions: with parS DNA site
# How it was run: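 Fitness here means the log change in variant-to-wild-type read ratio between plasmids sequenced before and after selection. That scale was set so cognate equals 1 and non-cognate equals 0. The selection was a bacterial one-hybrid screen of Caulobacter ParB libraries, four specificity codons randomised, in E. coli USO carrying a HIS3 reporter with the site 19 bp from the promoter, grown 48 hours at 37°C on M9-minus-histidine with 0.1 mM IPTG and 5 mM 3-AT.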
row,Variant,one-hybrid fitness for binding parS DNA
1,LKQG,≤ 0.2
2,DKYS,≤ 0.2
3,DVPC,≤ 0.2
4,ECYC,≤ 0.2
5,CFES,≤ 0.2
6,SDIS,≤ 0.2
7,SQAE,≤ 0.2
8,VTCL,≤ 0.2
9,VLAY,≤ 0.2
10,HKRQ,≤ 0.2
11,MNLT,≤ 0.2
12,SGFW,0.267
13,LNHI,≤ 0.2
14,LYYL,≤ 0.2
15,DTFI,≤ 0.2
16,RRGH,≤ 0.2
17,DMHG,≤ 0.2
18,KLNM,≤ 0.2
19,TDDT,≤ 0.2
20,NMLV,≤ 0.2
21,PRLF,≤ 0.2
22,RTGK,≤ 0.2
23,IPCY,≤ 0.2
24,MQNS,≤ 0.2
25,RAML,≤ 0.2
26,DMPM,≤ 0.2

row,Variant,one-hybrid fitness for binding parS DNA
1,ICTT,≤ 0.2
2,QHET,≤ 0.2
3,RPKD,≤ 0.2
4,EAMR,≤ 0.2
5,QEEP,≤ 0.2
6,FMSD,≤ 0.2
7,LYTW,≤ 0.2
8,LFFK,≤ 0.2
9,VLAH,≤ 0.2
10,LTGM,≤ 0.2
11,GKDS,≤ 0.2
12,QMHL,≤ 0.2
13,AGVT,≤ 0.2
14,SDSS,≤ 0.2
15,QRLF,≤ 0.2
16,NKLC,≤ 0.2
17,VPSG,≤ 0.2
18,MYMR,≤ 0.2
19,RNMD,≤ 0.2
20,DFNL,≤ 0.2
21,LGQV,≤ 0.2
22,VLQN,≤ 0.2
23,QLIC,≤ 0.2
24,RACH,0.306
25,FEKL,≤ 0.2
26,QDST,≤ 0.2

row,Variant,one-hybrid fitness for binding parS DNA
1,TETI,≤ 0.2
2,FCHS,≤ 0.2
3,NNNR,≤ 0.2
4,QLRE,≤ 0.2
5,TADK,≤ 0.2
6,HMSS,≤ 0.2
7,DLNM,≤ 0.2
8,NGCC,≤ 0.2
9,TEEG,≤ 0.2
10,VQYD,≤ 0.2
11,LFYN,≤ 0.2
12,MPAI,≤ 0.2
13,LPIY,≤ 0.2
14,QLAF,≤ 0.2
15,CRPA,≤ 0.2
16,RITA,0.55
17,SMFC,≤ 0.2
18,KERT,≤ 0.2
19,RIES,0.93
20,TYNC,≤ 0.2
21,RTMN,0.433
22,DWHY,≤ 0.2
23,AFNG,≤ 0.2
24,KLAV,≤ 0.2
25,YRLD,≤ 0.2
26,ASSC,≤ 0.2

row,Variant,one-hybrid fitness for binding parS DNA
1,TCNW,≤ 0.2
2,RMSP,0.204
3,QCMT,≤ 0.2
4,RKNC,0.806
5,LVYY,≤ 0.2
6,GLCG,≤ 0.2
7,KHPR,≤ 0.2
8,RVTR,≤ 0.2
9,QYLL,≤ 0.2
10,HCIG,≤ 0.2
11,MPSC,≤ 0.2
12,QIPN,≤ 0.2
13,CNKY,≤ 0.2
14,HFPG,≤ 0.2
15,RAYI,≤ 0.2
16,WWRS,≤ 0.2
17,DIQV,≤ 0.2
18,VRNL,≤ 0.2
19,SRVK,≤ 0.2
20,TWPG,≤ 0.2
21,EWTV,≤ 0.2
22,PFAH,≤ 0.2
23,WAMY,≤ 0.2
24,TCAG,≤ 0.2
25,SRSY,≤ 0.2
26,FTSF,≤ 0.2

row,Variant,one-hybrid fitness for binding parS DNA
1,DRMY,≤ 0.2
2,RNHN,0.346
3,HTYS,≤ 0.2
4,HQMG,≤ 0.2
5,KIWS,≤ 0.2
6,FRTS,≤ 0.2
7,KTAG,≤ 0.2
8,AQLI,≤ 0.2
9,AVNG,≤ 0.2
10,VGNG,≤ 0.2
11,WFNT,≤ 0.2
12,KRRR,≤ 0.2
13,ILAG,≤ 0.2
14,PLKY,≤ 0.2
15,SGAF,≤ 0.2
16,VTQI,≤ 0.2
17,YQSV,≤ 0.2
18,QRGM,≤ 0.2
19,IRFC,≤ 0.2
20,FSES,≤ 0.2
21,WTLF,≤ 0.2
22,CWIS,≤ 0.2
23,QRPM,≤ 0.2
24,RVWD,0.212
25,YCAG,≤ 0.2
26,QMGV,≤ 0.2

row,Variant,one-hybrid fitness for binding parS DNA
1,FNQS,≤ 0.2
2,WQRS,≤ 0.2
3,PQRA,≤ 0.2
4,AVVH,≤ 0.2
5,PDGD,≤ 0.2
6,RVWW,0.26
7,IQHR,≤ 0.2
8,ACKR,≤ 0.2
9,MELF,≤ 0.2
10,LKSS,≤ 0.2
11,TINY,≤ 0.2
12,HILR,≤ 0.2
13,SQPR,≤ 0.2
14,ESVV,≤ 0.2
15,NYFA,≤ 0.2
16,VSCY,≤ 0.2
17,MRAV,≤ 0.2
18,NESC,≤ 0.2
19,RNPE,≤ 0.2
20,HVQI,≤ 0.2
21,ASKR,≤ 0.2
22,CARL,≤ 0.2
23,EHRK,≤ 0.2

# Source: a collection of fitness landscapes (doi:10.1016/j.celrep.2020.107928)
